{
  "source": "paper PMC12136788",
  "binders": {"B1": {"name": "chr3:95061978:95061979:-_ENSMUSG00000015711_ENSMUST00000015855|mus_mus|FALSE|FALSE (ssRNA)", "RNA": "GGGAGUUCUACAGUCCGACGAUCUCGUUCCAGGAUGCCACAGAUUGUCAUUCGAAGUGCCUCGUGUGGACAGAAGAUAGCUAAUUGCCGUACUGGCUCAUUUUGAGUGUUGAAAAAGAUAGUCAUGGCAACCAGGGCAUCAUACAACAGAGGAUUGAGCAUCA"}, "B2": {"name": "47228842_47230765_1301_CDS_ENSG00000090372_ENST00000263280|human|control|control (ssRNA)", "RNA": "GGGAGUUCUACAGUCCGACGAUCGUGCGAGCGCAGGGUGAACUUGGGGUUCCACGUCUUCUUAAAAGCAUCUUUGCUGUCAGACAGAUCGCAGCUGAGGUCGUUGUCGUUGGUGACGGUGAGAUCUGCCAAGUCCCCCAGGCUCAACAGAGGAUUGAGCAUCA"}, "B3": {"name": "chr10:76910771:76910772:+_ENSG00000156671_ENST00000542569|perfect_dup|FALSE|FALSE (ssRNA)", "RNA": "GGGAGUUCUACAGUCCGACGAUCCAUGUCAGGCACUCGCUCAUGGACUAUAACCAUAAUGAAAGAUGUAAAUCCAAAUACUAUAAAAACAUAUAUACAACUCAGUAUAGUCUUCCAGUAUUCUGGGUCCAAUCUUCGAACAGACAACAGAGGAUUGAGCAUCA"}, "B4": {"name": "chr1:153634984:153634985:-_ENSG00000143621_ENST00000361891|hu_mus|FALSE|FALSE (ssRNA)", "RNA": "GGGAGUUCUACAGUCCGACGAUCUUCCUCCCCCUCCUUCUUCUCAGGUGGCUUCUCAUAAGCCUUUUCUGAGGGUGUCACAAUCACUCCAUCCCAGGUAGAUAUUUCAGAAGCAAGAUAGCUGGCAUCCCCCUCCUGGCCAAGCAACAGAGGAUUGAGCAUCA"}, "B5": {"name": "70285164_70285284_80_3pUTR_ENSMUSG00000043998_ENSMUST00000060579|mouse|control|control (ssRNA)", "RNA": "GGGAGUUCUACAGUCCGACGAUCGCGUCCUCUGCGCGCUCAUCCUUGCUCGCACGGCGGAACGGCGACACCGAACGCCGCAGCCUCGCCCCGCUCCGGCAGCGACCGCUCUGACAAGCCGCGACUGGCCUGCGAGCGCCCGGGCAACAGAGGAUUGAGCAUCA"}, "B6": {"name": "chr12:105553856:105553857:+_ENSG00000136051_ENST00000332180|hu_mus|motif|central (ssRNA)", "RNA": "GGGAGUUCUACAGUCCGACGAUCAAUGAUAUAGAAAUUUCGGAGAUGUAUAUUCUUUGGCCUUCGAAAUUCUGGAGCAAAAACAUCGGCAAGCAUUUUGAAAUAUUCUGUACCUUCAGCAGAGUUCCGUGUAUGAUCACUGAGCAACAGAGGAUUGAGCAUCA"}, "B7": {"name": "chr3:37096630:37096631:-_ENSG00000093167_ENST00000421276|perfect_dup|FALSE|FALSE (ssRNA)", "RNA": "GGGAGUUCUACAGUCCGACGAUCUUGCUCCAAGGUAGUUAUAUCCUGUUCUGCUUUUGAAAGCUUAAAUUUGUAUUCGCUAAUUUGUCUAUUGGCAUCUCUCUGCAUUUCGAUGAACUGCAAGUCUGAGCCAUUCUGCAGUCCCAACAGAGGAUUGAGCAUCA"}, "B8": {"name": "chr3:41268740:41268741:+_ENSG00000168036_ENST00000349496|perfect_dup|FALSE|FALSE (ssRNA)", "RNA": "GGGAGUUCUACAGUCCGACGAUCCACUCUGCUUGUGGUCCACAGAAGCUUCUCAUAAGUGUAGGUCCUCAUUAUGUUUACUAAGGCUUGGGGUCCACCACUGGCCAGAAUGAUGAGCUUGCUCUCUUGAUUGCCAUAAGCUAACAACAGAGGAUUGAGCAUCA"}, "B9": {"name": "chr16:45382771:45382772:-_ENSMUSG00000022661_ENSMUST00000163230|mus_hu|motif|central (ssRNA)", "RNA": "GGGAGUUCUACAGUCCGACGAUCCUGGGUCAUGUUAUAAGACAAAUGGACAGGGAGGGCAUGCUUCUCAAAAAAUGUGAGCGGUUGUCUAAGACUAACAAUAUUUAUCUAGCUAUAAAAAUAAGUUAAAUGAAUAAGUUAAGACAACAGAGGAUUGAGCAUCA"}, "B10": {"name": "197562582_197566200_1244_3pUTR_ENSG00000186001_ENST00000438796|human|control|control (ssRNA)", "RNA": "GGGAGUUCUACAGUCCGACGAUCUGGUGAACCCUCAUGAGAGAUUCGCCGCUGUUCAAUAUACGCCAUAAACUGUGAACUAAGGCUGUCUGGGUCUGGUCCCUUGGGCUGUCUCACCUCGGCCUCCUCUUCCUCUGCGGUGCACAACAGAGGAUUGAGCAUCA"}, "B11": {"name": "chr15:64980993:64980994:-_ENSG00000180304_ENST00000326005|hu_hu|FALSE|FALSE (ssRNA)", "RNA": "GGGAGUUCUACAGUCCGACGAUCAACCAUGAACAUCACAUCUGGCCGAGAGGGGACACAGGGAUGGCCUGGACGUACAAUCUCAAAGCCCAAGAAGCUGAAGGUCUUCAGGAGUGGAGCUCUGUCUUCUCGGCCCUUCCUGAACAACAGAGGAUUGAGCAUCA"}, "B12": {"name": "chr6:52962840:52962841:+_ENSG00000112146_ENST00000323557|hu_mus|motif|central (ssRNA)", "RNA": "GGGAGUUCUACAGUCCGACGAUCACAACAAAAGUGUCCUUAACAACUUCUAAUUUCAAAACAAAGUACCCCAGGAAUCAACGGUCCUUUUAAAUAAAAAAAAUAAUUUAUACUCUUCUUAAAGGAAUUCCAACAACUUAAAGUCAACAGAGGAUUGAGCAUCA"}, "B13": {"name": "chr2:136513182:136513183:+_ENSG00000144224_ENST00000272638|hu_hu|FALSE|FALSE (ssRNA)", "RNA": "GGGAGUUCUACAGUCCGACGAUCAUCAGAAGUGGGUGGUAUCUCACAAAGCUCUGCAUUUCUGGACUGAGAGUUUUCACAAGUGUUGUUAGGUUCAAAUGACGCAGAUGGAGUAGACACUGAACUUUCUGACUGACUGCCAUUCAACAGAGGAUUGAGCAUCA"}, "B14": {"name": "chr5:37680062:37680063:+_ENSMUSG00000029121_ENSMUST00000031004|mus_hu|mus_mus_mus_hu_False|48_88 (ssRNA)", "RNA": "GGGAGUUCUACAGUCCGACGAUCUUUGGGUGUAGCUGGUACCUCGUACACAGGCCCGUCAUACAUGCCCCUGGAAACCCCUUGCAACCCGAAAACCUUAUUCCUGAUUUUGACGCGCUGGUACAGGUGCUCCGGGAACGCCUUCAACAGAGGAUUGAGCAUCA"}},
  "note": "The list shows a part of the results.",
  "data": [
    {"target": "T1, UNK ZnF1-3 (human, UniProt Q9C0B0 31-174)", "T1 sequence": "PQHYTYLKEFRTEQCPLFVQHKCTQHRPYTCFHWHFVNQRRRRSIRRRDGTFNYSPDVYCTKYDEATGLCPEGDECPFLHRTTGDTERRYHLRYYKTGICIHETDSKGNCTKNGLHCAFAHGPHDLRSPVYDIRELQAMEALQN", "experiment": "nsRBNS (natural sequence RNA bind-n-seq); RBNS binding buffer (assumed for nsRBNS): 25 mM Tris pH 7.5, 150 mM KCl, 3 mM MgCl2, 0.01% Triton X-100, 500 ug/ml BSA, 20 U/ml SUPERase-In, 4 C; UNK is unkempt and MSI1 is Musashi-1; names of the RNAs are library labels; protein concentration not given here; high values mean tight binding", "units": {"binding signal": "enrichment R"}, "values": [
      {"binder": "B1", "binding signal": 1.03},
      {"binder": "B2", "binding signal": 0.951},
      {"binder": "B3", "binding signal": 1.21},
      {"binder": "B4", "binding signal": 1.17},
      {"binder": "B5", "binding signal": 0.379},
      {"binder": "B6", "binding signal": 0.766},
      {"binder": "B7", "binding signal": 0.628},
      {"binder": "B8", "binding signal": 1.19},
      {"binder": "B9", "binding signal": 1.44},
      {"binder": "B10", "binding signal": 0.641},
      {"binder": "B11", "binding signal": 1.19},
      {"binder": "B12", "binding signal": 2.15},
      {"binder": "B13", "binding signal": 1.04},
      {"binder": "B14", "binding signal": 0.693}
    ]}
  ]
}
